# Experimental data: article PMC10726135
# Some of the results follow. At the low end of the ranking, values are background and their order means little. Measured with an extract: partners may take part in the binding.
# Target: T1, HNF4alpha2 (COS-7 nuclear extract) (UniProt P41235)
# T1 sequence: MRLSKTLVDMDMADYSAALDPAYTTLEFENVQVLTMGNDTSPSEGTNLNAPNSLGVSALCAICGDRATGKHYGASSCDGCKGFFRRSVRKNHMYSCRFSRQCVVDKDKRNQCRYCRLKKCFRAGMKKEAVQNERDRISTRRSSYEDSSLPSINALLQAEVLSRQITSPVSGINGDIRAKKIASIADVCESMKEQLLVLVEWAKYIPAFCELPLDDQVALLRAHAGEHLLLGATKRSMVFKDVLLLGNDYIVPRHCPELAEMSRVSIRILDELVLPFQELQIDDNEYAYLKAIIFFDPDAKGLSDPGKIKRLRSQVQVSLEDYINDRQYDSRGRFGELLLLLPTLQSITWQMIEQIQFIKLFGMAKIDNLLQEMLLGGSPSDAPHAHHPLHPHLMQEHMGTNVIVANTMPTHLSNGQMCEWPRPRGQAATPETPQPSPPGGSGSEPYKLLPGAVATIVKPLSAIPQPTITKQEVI
# Assay: protein-binding microarray
# Details: COS-7 nuclear extract on double-stranded Agilent 4x180k PBM; binding buffer, salt, pH and temperature not given; high values mean tight binding; double strand, one strand shown; sequences stand for … in …GCCTAGGGAGATTAGAGTATCGGTCGA
row,Sequence,binding signal (log2 normalized intensity)
1,AACATGTAAATATGACCTTTGCTTTTCAAG,4.29
2,AGGCTCCCTCCCTGGGAGGCAGGACCTTGG,0.689
3,GAGTAGGTTCTCAGCTGACATTGGTGGAAT,1.36
4,TTCCCCTGACAAGTATCTCGGTCAAACCTT,0.885
5,CTCCAGCCACCCTGAAGGCTGAGCCTAGGA,-1.23
6,CTTCAGTCCTTCCCCCGCCAGATGTTTTTA,3.94
7,ACCTGAAAGAGCAACTACTCTCTCTTCTGG,-1.06
8,TGTAGGGAAATAAAACAGTCCATTTCAGTG,-0.528
9,ACAGCATTAAGCTGAGGCAGAGTTGTTTGC,-0.0646
10,TGGGGCCCATTACAGACTTTCAACAAGGTG,1.28
11,CAGCTGATGAGGCACCAACACTTCCCAATC,-1.07
12,AGACTTGGGTTCAAAGAGCACATTCCTGCA,2.96
13,TCCTGCTGGGCAGAGGGCAGAAGCCTCTCT,-1.04
14,GTATTACCTGCATCTGCCCAGCAGAGCAGT,-1.06
15,ATAAAGGGCAGGAACATCAGACACAGAGAT,-1.1
16,CCTAGAAAAACAACTAAAGGAATGCGCCTG,-0.898
17,AAACAGGAAAAAGGGACAAAACTTCAAAGC,-1.06
18,GTCCTGGGGCGATGCTTCCAAAGTCCACAG,4.35
19,CCTGTGCCCACTTTCCTGGGCCGGGGTAGC,-0.159
20,ATAACGTTACAGTGGAGAAACCTGACAGAC,-1.09
21,AATAAAGTGGCAACCCTTGACCCCAGTAAC,4.81
22,CCCAAGGAGAGGAGGGAACAGCAAGACTTT,-1.14
23,GCTGCTGGGAGGTAGCTCAAAGTCTAACCC,2.63
24,TTCAAAGGGCAAAAGGGCAAAACTGTCACA,3.26

row,Sequence,binding signal (log2 normalized intensity)
1,GGAAAAAAAAACCACTGTGTCACGCACGGT,-1.11
2,TCAAAGGAGGCATTCCTGCAATCAGAGCTG,-1.09
3,ACTCCCACCAGCATGGTGATGCTAGCTACT,-1.18
4,CTGGCCTGTTTGATCTGGTTTTTGTTGTTG,2.37
5,GGGACTAGCCTTATCTCAGATGAGACTTTG,1.7
6,CCTCTGCAACCTTTGCTCTCCCTCCTCTCT,3.1
7,CAGCTGCAGTGAAATTCTGGCCAACCAGCA,-1.11
8,AAGTTCATTGTAGCCTCAAATTCCTGGGCT,-1.08
9,AACCATAATGAAATACCACTGCACACATAA,-1.06
10,GGAAGGCAAAGTTCAACCCTGAATGTGTGC,2.24
11,TTAACCTTTGCTCTCTGAAATGAAGGTCAG,3.65
12,GTCAAAACTTTGTTTGAGTTCCAAAGTCCA,6.99
13,AGTGTAAATATTTGAGGACACAAAGTGGAC,2.09
14,GGTCTCTCACCTGGCTTCCCTTTGATCTTT,3.09
15,GGAGCTCGGCGCCAGGAAGCAATGGCCCTC,-1.08
16,GCGCTCCCTGTTTAGAATTCTGCCTCCCCC,4.96
17,ATTTAAGACGAGTGGTTTGAGGTCACATAG,1.55
18,GCTCCTGGGCCCAGATATACAAGAAAGAAA,-0.62
19,GAGAAAATTCTAGATAACTCCAAGATTAGT,-1.26
20,CGCTTGGCTCAGGCCGGTTGGCCAGGTTCC,-1.29
21,TGCCTGCCCTCTCCATGCAGACAGTCCCTC,-0.326
22,AAGTAGACAGATCAGAGAGATTTTCACATG,-0.547
23,TCAGGAGCCCCACAGAGCAAAGGTCATGCA,5.38
24,TGGAAATGCAAACACCTACATTCAAATCCT,-1.15

row,Sequence,binding signal (log2 normalized intensity)
1,GACCATCACCACTTCAAGCTTGGTATGCTT,-0.749
2,CGCGAGCACCGCGCGCGCAAAGCGGGGGCG,-1.19
3,TCTTTTGATAACTGATCTCTGGCTTGATCC,-0.0246
4,TCTGTCTGAGACCACTTAAGCCTGGAATTC,-0.552
5,CTGGGTGAGCCGCACACCGACTTGCACCAG,-1.12
6,ACTGTAAACCAGCAGTATCTTTGTGTCACC,0.469
7,CCCACGGTCAGGACTTGATGATTGACACTA,-1.01
8,AAGTCTTAGCTCATTTCAGCCTTAACTCAA,-1.1
9,GCAGAAGCAGAGAGAAACTTTGGAAGTAGG,-1.25
10,TCACGTACCGGCTAGACAAACAGCTTCTGT,-1.05
11,AGCAGGCAGAGGTCAATGTCCACACCCCAG,4.6
12,TAAAACACAAATCTCCACAAACATACAACC,-1.22
13,CTGCACCTTGAAACCCCTCCTTACAGTGCC,2.34
14,CTCCTGGATTGCAGGTAAACACAGTGATGG,1.21
15,AGCAGGTGACCTTCGATCACCTCAAGAAAG,3.8
16,AAGTTTGAAAATGCCTTGAACTATTCACTG,-1.1
17,AGGGGGAGGAGAGTACTGTCTCTTATCAGC,-1.21
18,GCCGAGAGCGGCTCGTTGGTCTAGGGGTAT,-1.24
19,AGGCTCCCCTAATCCCTGTGACATTTTCAG,1.28
20,GATAATCACCCGATAAGCTGACCCCAAAAC,4.68
21,TATTTGTTTTCTGTCTTCATCCTGAGAGGG,-0.496
22,TGCAAGGAAATGGATTGCCTCCTAAGGCCT,-1.2
23,AGACAACCTTTGTTCACAGTGACGTTCTGC,1.51
24,GATCAAAGTTCATTGTAGCCTCAAATTCCT,3.55
